Results as given in PubChem BioAssay AID1347417 (National Center for Advancing Translational Sciences (NCATS), 2020).
Several values for one entry are separate records, joined by “and”; a condition that tells them apart may be missing. Identical values can stand only once. The campaign covered roughly 120,000 compounds. About 5,300 (4.4%) were called active. The shares of active, inactive and inconclusive entries below differ from those in the screen. Calls follow the shape of the dose curve; as a rule, active = well fitted inhibition curve with a large enough effect; inconclusive = small, poorly fitted or top-dose-only effect; inactive = no such curve, though single readings can be large or run the other way. Potencies of inconclusive entries are doubtful fits and often do not repeat.

experiment: qHTS Primary assay for Inhibitors of Plasmodium falciparum Dd2 growth in vitro; also: nearly all actives have a fitted effect of over 65% in size; conditions: P. falciparum Dd2 growth, SYBR Green, 72 h; series mostly up to 28.9 µM
Procedure, shortened: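 Infected erythrocytes (Dd2, 0.3% parasitemia, 2.5% hematocrit final) are added to compound in RPMI-1640/Albumax II medium, grown 72 h at 37C in low oxygen, then lysed with saponin/Triton-X containing SYBR Green and read by fluorescence.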
Potency is read from the fitted curve at half-maximal effect; tags tell the direction and shape of the fitted curve.

| Structure (SMILES) | Potency |
| --- | --- |
| CCOc1ccc(CCNC(=O)c2ccc3nc(CC)c(CC)nc3c2)cc1 | inconclusive: 1 µM [inhibitor, single point] |
| Cn1ccnc1C(=O)NCC(=O)N1CCCCCNC(=O)CC1c1ccccc1 (stereo not drawn) | inactive |
| O=c1ncn(Cc2ccccc2)c2ccc(-c3cccnc3)nc12 | inconclusive: 14.1 µM [inhibitor, single point] |
| CCN(CC)c1ccc(NC(=O)C2COc3ccc(OC)cc3C2)c(C)c1 (stereo not drawn) | inconclusive: 10 µM [inhibitor, single point] |
| COc1ccc2[nH]cc(CN3CCC([C@H]4[C@@H](OC)C(=O)N4C(C)C)CC3)c2c1 | inconclusive: 5.62 µM [inhibitor, partial curve] |
| O=C(Nc1ccc2c(c1)N(C1CCCC1)C(=O)c1ccccc1S2)c1ccc(F)cc1 | inconclusive: 17.8 µM [inhibitor, single point] |
| O=C(c1cccc(Cl)c1)N1CCC(N(Cc2ccccc2)C2CCOCC2)CC1 | active: 5.01 µM |
| COCCNc1ncccc1-c1noc([C@@H]2CCCN2Cc2ccc3c(c2)OCO3)n1 | inactive |
| CCN(CC)CCCNC(=O)c1ccc2nc(CCc3ccccc3)oc2c1 | inconclusive: 17.8 µM [inhibitor, single point] |
| CN1C[C@H](O)C[C@H]1c1nnc2n1CCN(S(=O)(=O)c1ccc(F)cc1)CC2 | inactive |
| C=Cc1ccc(Cn2c(=O)n(-c3cccc(C)c3)c(=O)c3c2c2cc(C)ccc2n3C)cc1 | inconclusive: 12.6 µM [inhibitor, single point] |
| COCCn1ccc2c(C3=CCOCC3)nc(-c3cccc(NC(C)=O)c3)cc21 | inconclusive: 12.6 µM [inhibitor, single point] |
| COc1ccc(C(=O)NCc2nnc3ccc(-c4ccc(F)cc4)nn23)c(OC)c1 | inconclusive: 0.112 µM [inhibitor, full curve, poor fit] |
| CN1CCC(OC2CCN(C(=O)c3ccc(Cl)cc3)CC2)CC1 | inactive |
| COCc1nc(C2CC(N)C2)cc(N2Cc3nc(C)n(C)c(=O)c3C2)n1 (stereo not drawn) | inconclusive: 8.91 µM [inhibitor, partial curve] |
| CCc1cccc(NCc2ccccc2-c2nnc(-c3ccccc3Cl)o2)c1 | inconclusive: 11.2 µM [inhibitor, single point] |
| COc1cccc(-c2ccc(NC(=O)C3CCCN3C(=O)Cn3cccn3)cc2)c1 (stereo not drawn) | inactive |
| Cc1ccc(-c2nnc(C3CN(C(=O)c4ccccc4)CC34CCOCC4)o2)cc1 (stereo not drawn) | inconclusive: 12.6 µM [inhibitor, single point] |
| O=C(c1ccccc1)N1CCC(NCc2cnn(-c3cccc(F)c3)c2)CC1 | inconclusive: 8.91 µM [inhibitor, partial curve] |
| O=C(NCCCc1nc2ccccc2[nH]1)C1CCCN(C2CCCC2)C1 (stereo not drawn) | inactive |
| COCCN1CC2(CCCN(C(=O)CCc3cccc(F)c3)C2)CCC1=O (stereo not drawn) | inactive |

| Structure (SMILES) | Potency |
| --- | --- |
| O=C(NCCCc1nc2ccccc2n1Cc1ccc(Cl)cc1)c1ccco1 | inconclusive: 15.8 µM [inhibitor, single point] |
| Cc1oc2ncn(CC(C)C)c(=O)c2c1C(=O)NCCCN(Cc1ccccc1)C(C)C | inconclusive: 2.51 µM [inhibitor, partial curve, poor fit] |
| CCOc1ccc(NC(=O)CSc2nnc(-c3ccc(C)cc3)c(-c3ccc(C)cc3)n2)cc1 | inconclusive: 17.8 µM [inhibitor, single point] |
| COc1ccccc1-c1ccccc1CN1CCC(C)(NC(C)=O)C1 (stereo not drawn) | inconclusive: 10 µM [inhibitor, partial curve] |
| CC(C)c1noc(-c2ccn3c(CNC(=O)c4cccc(N(C)C)c4)nnc3c2)n1 | inconclusive: 12.6 µM [inhibitor, single point] |
| CCc1ccccc1NC(=O)C1CCCN(c2nnc(-n3c(C)ccc3C)s2)C1 (stereo not drawn) | inconclusive: 8.91 µM [inhibitor, single point] |
| COc1ccc(-c2ccccc2NC(=O)C2CCCN(Cc3ccc(O)c(OC)c3)C2)cc1 (stereo not drawn) | inconclusive: 7.08 µM [inhibitor, partial curve, poor fit] |
| CN1CC(=O)N(c2ccc(Cl)cc2)Cc2c1ncnc2N1CCOCC1 | inconclusive: 7.94 µM [inhibitor, partial curve, poor fit] |
| O=C(NCCCN1CCCCC1)c1ccc2c(c1)N(S(=O)(=O)c1ccccc1)CC2 | inconclusive: 2.82 µM [inhibitor, partial curve, poor fit] |
| COc1ccc2[nH]c3c(c2c1)CCNC31CCN(S(=O)(=O)c2c(C)noc2C)CC1 | inconclusive: 11.2 µM [inhibitor, single point] |
| COCC(=O)NC[C@@H]1C=C(C)[C@H](CC(=O)N2CCN(c3ccccn3)CC2)C[C@H]1C(C)C | inconclusive: 10 µM [inhibitor, partial curve, poor fit] |
| Cc1ccc(-n2c(=O)c3oc4ccccc4c3n(CC(=O)Nc3ccccc3)c2=O)cc1C | inconclusive: 7.08 µM [inhibitor, single point] |
| O=C(COc1ccc(-c2nnc3n2CCCC3)cc1)NCc1ccccc1 | inconclusive: 11.2 µM [inhibitor, partial curve, poor fit] |
| COc1cccc(CC(=O)N2CCC(c3nc(CCOc4ccc(F)cc4)no3)C2)c1 (stereo not drawn) | inactive |
| CCOc1cc(C2c3c(-c4ccccc4O)n[nH]c3C(=O)N2CCc2ccccc2)ccc1O (stereo not drawn) | inconclusive: 5.62 µM [inhibitor, partial curve, poor fit] |
| Cc1cc(C)cc(-c2ccc(CN3CCCC(c4nc5ccc(F)cc5c(=O)[nH]4)C3)cc2)c1 (stereo not drawn) | inconclusive: 1.26 µM [inhibitor, partial curve, poor fit] |
| Cc1cccc(-c2ccc3c(c2)C(=O)N2CC[C@H](NC(=O)C4CCCC4)[C@H]2C(=O)N3)c1C | inconclusive: 17.8 µM [inhibitor, single point] |
| CCCCc1ncc(-c2c(-c3ccccc3)ncn2CCC2CCCN2C)[nH]1 (stereo not drawn) | inconclusive: 10 µM [inhibitor, partial curve] |
| COc1cccc(-c2ccc(CN3CCCC(c4nc5ccc(C)cc5c(=O)[nH]4)C3)cc2)c1 (stereo not drawn) | active: 7.94 µM and inconclusive: 2.51 µM [inhibitor, full curve, poor fit] |
| COC(=O)CN(C)Cc1cn(-c2ccc(C)cc2)nc1-c1cccc(C)c1 | inactive |
| CCC1Oc2ccc(NC(=O)c3ccccc3F)cc2CN(CCc2ccc(OC)c(OC)c2)C1=O (stereo not drawn) | active: 1.78 µM |

| Structure (SMILES) | Potency |
| --- | --- |
| Cc1ccc(-n2nc3n(c2=O)CCN(C(=O)c2ccccc2Cl)C3)cc1 | inconclusive: 8.91 µM [inhibitor, single point] |
| Cc1csc(NC(=O)c2nc3c(o2)CCN(Cc2ccccc2F)CC3)n1 | inconclusive: 20 µM [inhibitor, single point] |
| CC(C)(C)NS(=O)(=O)c1ccccc1-c1nc(N)nc2c1CCC2 | inactive |
| COC(=O)[C@@H]1Cc2c[nH]c3cccc(c23)[C@H](CC(C)C)N1 | inconclusive: 12.6 µM [inhibitor, partial curve, poor fit] |
| Cc1ccc(-c2noc(C(C)Oc3ccccc3)n2)nn1 (stereo not drawn) | inactive |
| COc1cccc(CN2C[C@@H](CO)[C@H](NC(=O)c3ccccc3)C2)c1 | inconclusive: 11.2 µM [inhibitor, single point] |
| Cc1n[nH]c(C)c1C(N)C(=O)NCc1cc(C(F)(F)F)ccc1F (stereo not drawn) | inactive |
| CCc1ccc(NCc2cc3cc4c(cc3n(CC(=O)Nc3ccc(F)cc3)c2=O)OCCO4)cc1 | inactive |
| COCc1ccc(C(=O)N2CCN(CCO)CC(O)C2)cc1 (stereo not drawn) | inactive |
| O=C1CC(c2ccccc2)N(C(=O)C2CC2)CCCN(C(=O)Cc2c[nH]c3ccccc23)CCN1 (stereo not drawn) | inconclusive: 20 µM [inhibitor, single point] |
| CC(C)C1=NOC2(CCN(Cc3ccc(Cl)cc3)CC2)C1 | inconclusive: 25.1 µM [inhibitor, partial curve, poor fit] |
| Cn1cc([C@@H](NC(=O)c2ccc3c(c2)OCC(=O)N3)C2CC(O)C2)cn1 (stereo partly drawn) | inactive |
| Cc1ccc(NC(=O)Cn2c(=O)ccc3cc(S(=O)(=O)N4CCC(C)CC4)ccc32)cc1Cl | inconclusive: 12.6 µM [inhibitor, single point] |
| O=C(NCCCc1nc2ccccc2[nH]1)C1CC(=O)N(c2n[nH]c3ccccc23)C1 (stereo not drawn) | inconclusive: 20 µM [inhibitor, single point] |
| O=C1CCCN1c1ccc(Cn2ccn3nc(-c4ccccc4)c(CO)c3c2=O)cc1 | inconclusive: 2 µM [inhibitor, partial curve, poor fit] |
| CCc1cccc(NC(=O)c2ccc(Cn3ccn4nc5c(c4c3=O)CCCC5)cc2)c1 | inconclusive: 11.2 µM [inhibitor, single point] |
| O=C1CS(=O)C2(CCNCC2)N1C1CCCC1 (stereo not drawn) | inconclusive: 20 µM [inhibitor, single point] |
| c1csc(-c2ccnc(N[C@H]3CO[C@H]4[C@@H]3OC[C@@H]4NCC3CCCCC3)n2)c1 | inconclusive: 0.631 µM [inhibitor, full curve] |
| O=C(c1ccc2c(c1)[nH]c(=O)n2C1CCC(O)CC1)N1CC[C@H]2CNC[C@H]21 (stereo partly drawn) | inactive |
| COc1ccccc1N1CCN(C(CNC(=O)C(=O)NCCc2ccccc2)c2cccnc2)CC1 (stereo not drawn) | inconclusive: 12.6 µM [inhibitor, single point] |
| CCC(=O)N1Cc2ccccc2CC2(CCN(CC3CCOCC3)C2)C1 (stereo not drawn) | inconclusive: 20 µM [inhibitor, partial curve, poor fit] |
